PubChem BioAssay AID2202238 (Ras Initiative Chemistry Research Team, Frederick National …, 2025)
Some of the results follow. Further columns of the screen follow, without active or inactive calls.

Target: GTPase KRas (Homo sapiens) (UniProt P01116)
Assay: Cysteine mutants labelled by reactive fragments (mass read-out) (AID 2202238)
Parameters: protein at 5 µM with 500 µM competing thiol for 1.5 h
Conditions: KRAS G12D cysteine mutants, disulfide tethering, MALDI-TOF labeling, stronger effect = higher value, fragment at 500 µM
[1] = measured here: G60C mutant labeling
[2] = measured here: G75C mutant labeling
[3] = measured here: H94C mutant labeling
[4] = measured here: I36C mutant labeling
[5] = measured here: L120C mutant labeling
[6] = measured here: M67C mutant labeling
[7] = measured here: M72C mutant labeling
[8] = measured here: N26C mutant labeling
[9] = measured here: N86C mutant labeling
[10] = measured here: P121C mutant labeling
[11] = measured here: S122C mutant labeling
[12] = measured here: S136C mutant labeling

UniProt P01116, sequence (P01116 whole entry, looked up, the tested form may be a part): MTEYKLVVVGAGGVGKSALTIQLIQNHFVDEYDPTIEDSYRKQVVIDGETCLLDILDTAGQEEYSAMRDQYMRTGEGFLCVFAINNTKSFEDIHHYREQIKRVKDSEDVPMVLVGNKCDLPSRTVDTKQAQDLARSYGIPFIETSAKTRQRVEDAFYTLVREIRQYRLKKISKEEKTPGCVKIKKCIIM

Row | SMILES | percent labeling [1] | percent labeling [2] | percent labeling [3] | percent labeling [4] | percent labeling [5] | percent labeling [6] | percent labeling [7] | percent labeling [8] | percent labeling [9] | percent labeling [10] | percent labeling [11] | percent labeling [12]
1 | O=C(NCCS)C1CCCN(Cc2cccc(F)c2)C1 (stereo not drawn) | 46.4% | 15.9% | 40.5% | 34.1% | 36.7% | 53.2% | 38.3% | 45.7% | 29.1% | 31.5% | 28.2% | 52.3%
2 | O=C(CCS)NCCc1cc(-c2ccncc2)n[nH]1 |  | 15.6% | 28.7% | 47.2% | 24.4% | 41.8% | 22% |  | 13.2% | 29.1% | 24.1% | 42.1%
3 | O=C(NCCS)c1cncn1-c1ccccc1Cl | 55.5% | 23% | 49.3% | 31% | 49% | 40.4% | 48.1% | 46% | 35.3% | 34.7% | 36.5% | 55.5%
4 | CC(C)n1nc(C(=O)NCCS)c2ccccc2c1=O | 33.6% | 18.7% | 29.1% | 13% | 19.7% | 23.5% | 43% | 33.6% | 16.4% | 17.4% | 17.3% | 38.4%
5 | O=C(CCn1cc(Br)ccc1=O)NCCS | 33.5% | 15.5% | 30.3% | 28.4% | 35.9% | 33.7% | 24.3% | 32.9% | 25.5% | 32.6% | 29.8% | 40.8%
6 | CCCN1C(=O)CCc2cc(NC(=O)CCS)ccc21 |  | 12% | 27.8% | 28.3% | 26.3% | 23.8% | 48.3% |  | 20.6% | 20.5% | 20.1% | 37.1%
7 | O=C(NCCS)c1cnnc(-c2ccccc2)c1 | 27.7% | 15.6% | 18.7% | 21.2% | 19.2% | 24.9% | 54.4% | 32.1% | 12.5% | 26.9% | 17.3% | 39.4%
8 | CCCn1c(=O)[nH]c(=O)c2cc(C(=O)NCCS)cnc21 | 21.3% | 7.6% | 11.7% | 14.7% | 11.3% | 15.5% | 32.5% | 29.8% | 15.8% | 10.2% | 10.2% | 21.2%
9 | Cc1noc(C)c1CN(C)CCC(=O)NCCS | 23.6% | 8.6% | 26.5% | 23.3% | 26.2% | 28.2% | 8.9% | 31.9% | 18.3% | 26% | 22.9% | 39.2%
10 | O=C(NCCS)[C@@H]1Cc2ccccc2O[C@H]1C(F)(F)F | 40.8% | 14.5% | 19% | 15.8% | 24.1% | 15.6% | 29.4% | 27.8% | 23.1% | 22.6% | 13.1% | 19.5%
11 | O=C(NCCS)c1csc(Nc2cc(F)cc(F)c2)n1 | 24.2% | 53% | 22% | 12.7% | 18.1% | 12.2% | 65.2% | 27.1% | 12.1% | 13.5% | 8.1% | 24.1%
12 | Cc1ccc(C(=O)NCCS)cc1-n1cccc1 | 16.9% | 7% | 8.6% | 7.3% | 10.6% | 4.9% | 21.8% | 21.8% | 0% | 7.5% | 5.1% | 40.1%
13 | Cc1csc2ncc(C(=O)NCCS)c(=O)n12 | 30.8% | 27.8% | 22.8% | 21.3% | 30.7% | 26.5% | 56.6% | 40.8% | 15.6% | 15.1% | 17.8% | 43.1%
14 | Cc1cc(C(F)F)n2ncc(C(=O)NCCS)c2n1 | 40.6% | 24.7% | 31.8% | 28% | 34% | 41.5% | 39.6% | 37% | 21.6% | 26.3% | 26.1% | 52%
15 | Cc1ccc(Nc2cccc(C(=O)NCCS)c2)nn1 | 39.6% | 25.3% | 36.4% | 22.6% | 39.1% | 29.8% | 45% | 51.5% | 36.4% | 23.5% | 22.5% | 38.2%
16 | Cc1ccn(-c2ccccc2C(=O)NCCS)n1 | 38.2% | 13.9% | 35.5% | 29.8% | 31.6% | 58.1% | 29.4% | 35.2% | 22.8% | 32.3% | 28.8% | 46.1%
17 | O=C(NCCS)C1(C2CCOCC2)CCOCC1 | 19.7% | 6.7% | 27.4% | 22.9% | 26.3% | 27.1% | 7.2% | 30.8% | 25.3% | 29.3% | 31% | 34.9%
18 | CC1(C)CNC(=O)c2c(C(=O)NCCS)coc2C1 | 30.7% | 14.5% | 33.1% | 23% | 45.5% | 33.1% | 43.5% | 34.4% | 24.1% | 28.4% | 30% | 48.2%
19 | O=C(NCCS)c1ccc2cc(O)ccc2c1 | 35.8% | 18.9% | 23.7% | 16% | 9.4% | 16.5% | 55.7% | 47.7% | 18.1% | 17.8% | 11.6% | 29.6%
20 | CC(C)CNC(=O)N1CCCC(CC(=O)NCCS)C1 (stereo not drawn) | 20.7% | 8.1% | 27.4% | 17.1% | 29.4% | 22.2% | 12% | 24.3% | 19.6% | 23.3% | 23.3% | 32.9%
21 | Cc1nc2ccccc2n(CCNC(=O)CCS)c1=O |  | 13.6% | 32.1% | 41.6% | 39.6% | 37% | 29.4% |  | 22% | 32.5% | 31.8% | 53%
22 | COC(=O)c1ccc(CNC(=O)CCS)nc1C1CC1 |  | 15.8% | 31.7% | 35% | 25% | 39.2% | 31.5% |  | 27.3% | 28.1% | 31.9% | 49.8%
23 | Cc1c(C(=O)NCCS)[nH]c2cc(Cl)ccc12 | 47.8% | 14.4% | 10.7% | 6.9% | 14.5% | 11.1% | 41.6% | 27.9% | 11.2% | 10.1% | 8% | 12%

Row | SMILES | percent labeling [1] | percent labeling [2] | percent labeling [3] | percent labeling [4] | percent labeling [5] | percent labeling [6] | percent labeling [7] | percent labeling [8] | percent labeling [9] | percent labeling [10] | percent labeling [11] | percent labeling [12]
24 | CCNC(=O)CN1CCN(C(=O)CCS)CC1 |  | 8.1% | 29.5% | 33.4% | 29.1% | 37.2% | 15.5% |  | 25.6% | 35.1% | 35.7% | 55.6%
25 | CNC(=O)c1cccc(OCC(=O)NCCS)c1 | 28% | 18.8% | 30.5% | 23.7% | 48% | 27.6% | 25.7% | 42.5% | 23.4% | 28.9% | 30.1% | 40.3%
26 | O=C(CCS)NCCNC(=O)c1cc2ccccc2[nH]1 |  | 11.9% | 29.2% | 33.2% | 27.1% | 41.2% | 27.9% |  | 24.7% | 28% | 23.3% | 36.8%
27 | O=C(NCCS)C1(c2cccnc2)CC(F)(F)C1 | 42.3% | 16% | 30.5% | 36.5% | 31.8% | 30.5% | 18.6% | 37.6% | 33.9% | 28.7% | 27.8% | 43.7%
28 | O=C(CCCN1C(=O)c2ccccc2C1=O)NCCS | 40.2% | 18.3% | 36.1% | 30% | 43.6% | 52.4% | 29.3% | 40.9% | 31.8% | 37.3% | 34% | 44.5%
29 | CN(C)C(C(=O)NCCS)c1cscn1 (stereo not drawn) | 26.7% | 8.8% | 25.2% | 24.4% | 29.3% | 25.8% | 8.8% | 25% | 22.9% | 26.9% | 22.6% | 39.5%
30 | O=C(CCS)Nc1cccc(C(=O)Nc2ccc(Br)cn2)c1 |  | 3.9% | 9.2% | 11.9% | 5.8% | 6.5% | 14.1% |  | 4% | 6% | 3.9% | 18.9%
31 | CN1CCC(C(=O)NCCS)C(c2ccnn2C)C1 (stereo not drawn) | 31.7% | 11.4% | 36.9% | 42% | 33.9% | 47.1% | 19.3% | 35% | 25.5% | 37.6% | 31.3% | 54.5%
32 | Cc1ccc(NC(=O)CCS)cc1-c1nnnn1C1CC1 |  | 11.6% | 27.6% | 29.2% | 20.8% | 31.9% | 25.6% |  | 13.7% | 25.8% | 21.5% | 45.7%
33 | O=C(CCS)N1CCc2[nH]cc(I)c(=O)c2C1 |  | 20% | 38.9% | 49.4% | 50.7% | 42.3% | 27.5% |  | 45.8% | 35% | 38% | 73.8%
34 | NC(=O)Nc1cccc(NC(=O)CCS)c1 |  | 17.4% | 41.8% | 34.1% | 34.6% | 33.1% | 39.9% |  | 41.7% | 37.1% | 31.4% | 49.5%
35 | CCn1ncc2cc(C(=O)NCCS)c(C)nc21 | 33.5% | 15.7% | 30.1% | 23.9% | 26.4% | 33.1% | 34.7% | 47.6% | 25% | 32.5% | 27.5% | 49%
36 | O=C(NCCS)c1nc(-c2ccccc2)ns1 | 18.9% | 12.2% | 8.5% | 6% | 15.7% | 6.1% | 18.1% | 22.5% | 6.4% | 9.3% | 7.7% | 11.7%
37 | Cc1cccnc1Oc1ccc(C(=O)NCCS)cc1 | 22.6% | 9.9% | 14.5% | 9.8% | 18.7% | 20.7% | 33% | 34% | 11% | 14.6% | 15.6% | 24.7%
38 | Cc1ccn(-c2cccc(C(=O)NCCS)c2)n1 | 32.4% | 15.9% | 24.1% | 15.7% | 26% | 20.2% | 51.4% | 44.1% | 15.9% | 17.5% | 17.8% | 38.5%
39 | O=C(CCc1ccc(F)c2c1CCCC2)NCCS | 28.3% | 13.2% | 16.4% | 15.2% | 16.9% | 15% | 38.9% | 25.8% | 13.7% | 15.4% | 11.9% | 21.9%
40 | Cc1ccc(C(=O)NCCS)cc1N1CCOCC1 | 35.9% | 16.8% | 32.4% | 19.2% | 36.3% | 25.7% | 56% | 43.3% | 21.8% | 23.4% | 26.5% | 47.4%
41 | O=C(CCS)Nc1ccc(-n2cnnc2)nc1 |  | 16.6% | 24.2% | 40.7% | 19.3% | 27.5% | 28.6% |  | 20.7% | 23.3% | 19% | 37.3%
42 | CCCc1c(C(=O)NCCS)cnn1-c1ccccc1 | 41.2% | 22.2% | 29.5% | 20.9% | 31.2% | 23.4% | 62.1% | 38.1% | 19.3% | 23% | 22.2% | 51.4%
43 | O=C(NCCS)c1nc2ccc(Br)cn2n1 | 46.7% | 33% | 37.5% | 35.1% | 52.1% | 39.6% | 65.7% | 49.2% | 30.9% | 55.9% | 32.3% | 50%
44 | O=C(NCCS)c1ccc(-c2n[nH]c(C3CC3)n2)cc1 | 24.1% | 13.2% | 12.1% | 15.8% | 19.3% | 19.3% | 33.7% | 41.2% | 27.6% | 15.3% | 16.7% | 32.3%
45 | O=C(CCS)NCCn1cnc2sccc2c1=O |  | 9.5% | 31.3% | 38% | 36.7% | 35.9% | 19.1% |  | 19.7% | 31.7% | 31.2% | 54.1%
46 | C[C@@H]1CN(c2ccccn2)C[C@H]1C(=O)NCCS | 52.2% | 21.3% | 34.3% | 30.3% | 35.7% | 42.9% | 30% | 46.7% | 33.2% | 33.8% | 31.2% | 54.6%
